# Results reported in PubChem BioAssay AID1508623 (National Center for Advancing Translational Sciences (NCATS), 2021).
# Hit rate of the full screen: of about 48,000 compounds, about 450 (0.94%) were called active. Inconclusive results (about 19%) are left out. Calls follow the shape of the dose curve; as a rule, active = well fitted inhibition curve with a large enough effect; inconclusive = small, poorly fitted or top-dose-only effect; inactive = no such curve, though single readings can be large or run the other way. The list shows a part of the results.
# Assay: Primary qHTS for Identification of Small Molecule Inhibitors of Huntingtin Promoter Activity; also: nearly all actives have a fitted effect of over 50% in size
# Conditions: HEK293 HTT promoter firefly luciferase reporter (activity 0% = vehicle and -100% = no light), 24 h; series mostly up to 57.5 µM; activity change, negative = inhibition: at the top concentration
# Text: Assay Provider: Russell L. Margolis M.D.
# Department Neurology, Johns Hopkins University School of Medicine, Baltimore, MD
# Huntington's Disease (HD) is a neurodegenerative disorder caused by a CAG repeat expansion in exon 1 of huntingtin (HTT). While there are currently no disease-modifying treatments for HD, recent efforts have focused on development of nucleotide-based therapeutics to lower HTT expression. As an alternative to siRNA or oligonucleotide methods, we hypothesized that suppression of HTT expression might be accomplished by small molecules that either (1) directly decrease HTT expression by suppressing HTT promoter activity or (2) indirectly decrease HTT expression by increasing the promoter activity of HTT-AS, the gene antisense to HTT that appears to inhibit expression of HTT.
# We developed and employed a high throughput screen for modifiers of HTT and HTT-AS promoter activity using luminescent reporter HEK293 cells; of the 52,041 compounds tested, we identified 898 replicable hits. We used a rigorous stepwise approach to assess compound toxicity and the capacity of the compounds to specifically lower huntingtin protein in 5 different cell lines, including HEK293 cells, HD lymphoblastoid cells, mouse primary neurons, HD iPSCs differentiated into cortical-like neurons, and HD hESCs. We found no compounds which were able to lower huntingtin without lowering cell viability in all assays, though the potential efficacy of a few compounds at non-toxic doses could not be excluded.
# SEQUENCE No. (1, 2, 3, etc.); […] (e.g., Cells, Incubation, Reagent, etc.); VALUE and DESCRIPTION.
# 1; Reagent; 4 uL; 2,500 Hek293 luciferase reporter cells per wells
# 3; Compound; 23 nL; Control inhibitor / compound library
# 5; Reagent; 2.5 uL; Firefly Luc reagent; Dual-Glo Luciferase Reporter Assay System (Promega)
# 6; Time; 10 min; room temperature incubation
# 7; Detection; Luminescence; FLuc
# NOTES (numbers refer to sequence above)
# 1; High-throughput screening, measuring luminescence from a Hek293 luciferase reporter, was performed in 1,536 well white-walled tissue-culture treated plates. 2,500 cells were plated in 4 µL of Opti-MEM per well using a Multidrop Combi Reagent Dispenser (ThermoFisher).
# 2; Assay plates were cultured for 24 hours.
# 3; Control inhibitor (PTC124; final concentration of 50 uM) and compound library (at final concentrations of 460 nM - 57.5 uM) were added to the assay plate using the Kalypsis Pintool Robotic System equipped with 1536 pinheads.
# 4; Cells were then incubated for 24 hours at 37 degrees C prior to luminescence measurements.
# 5; In all cases, luminescence was measured using the Dual-Glo Luciferase Reporter Assay System (Promega) following the manufacturer's instructions.
# 6; Room temperature incubation.
# 7; Luminescence signal was obtained using the PerkinElmer ViewLux plate reader. Results were normalized to vehicle control (0% activity) and zero RLU (-100% activity).
# Potency is read from the fitted curve at half-maximal effect.
SMILES,"activity change, negative = inhibition",Potency
Cc1nn(CCCC(=O)NCCc2ccc(Cl)cc2)c(=O)c2nn(-c3ccccc3)c(C)c12,inactive: -3.72%,
CCn1c(=O)c(C(=O)Nc2cc(OC)c(OC)c(OC)c2)nc2ccccc21,inactive: 8.54%,
COc1ccc(C2CC(=O)c3cc(-c4nc(-c5cccc([N+](=O)[O-])c5)cs4)c(=O)n(-c4ccccc4C)c3C2)cc1 (stereo unspecified),inactive: -19.4%,
Cc1ccc(-c2cc(NC(=O)COc3c(C)cc(C)cc3C)on2)cc1,inactive: 30.1%,
O=C(NCc1ccccc1F)c1cccc(NC(=O)N2CCSc3ncccc32)c1,inactive: -29.4%,
CCN(CC)CCOC(=O)c1ccc(N)cc1,inactive: 3.13%,
COc1cc(NC(=O)Cn2c(=O)n(CC3CCCO3)c(=O)c3cc(OC)c(OC)cc32)cc(OC)c1 (stereo unspecified),inactive: -5.76%,
CCOCCc1nn2c(=O)cc(COC(=O)c3ccc(NC(=O)c4ccc(F)cc4)cc3)nc2s1,inactive: -20.1%,
CCc1ccc(C2CC(=O)N(c3cccc(C(F)(F)F)c3)C3=C2C(=O)OC3)cc1 (stereo unspecified),inactive: -17%,
CC[C@H](C)C(=O)O[C@H]1C[C@@H](C)C=C2C=C[C@H](C)[C@H](CC[C@@H]3C[C@@H](O)CC(=O)O3)[C@H]21,inactive: 18.5%,
CC(=O)N1CCc2cc(CNC(=O)Nc3ccccc3C(F)(F)F)ccc21,inactive: -1.88%,
Clc1ccc(C(Cn2ccnc2)OCc2ccc(Sc3ccccc3)cc2)c(Cl)c1 (stereo unspecified),inactive,
COc1ccc2c(CNC3CCC(C)CC3)c(C(=O)O)n(Cc3ccccc3)c2c1 (stereo unspecified),inactive: -12.1%,
Cc1ccc(-c2cn3nc(N4CCC(C(=O)Nc5ccccc5C)CC4)sc3n2)cc1,inactive: 17.5%,
CCOc1ccccc1CNC(=O)C1CCN(Cc2cc3ccccc3n2Cc2ccccc2)CC1,inactive: -0.0643%,
Cc1ccc2oc(C(=O)Nc3ccc(S(=O)(=O)Nc4ncccn4)cc3)cc(=O)c2c1,inactive: 35% [at 11.5 µM],
CN(C)S(=O)(=O)N(CC(=O)NCCSc1ccc(Cl)cc1)c1ccccc1,inactive: -16.6%,
CCCS(=O)(=O)c1nc(S(=O)(=O)c2ccc(C)cc2)c(NC(C)c2ccccc2)s1 (stereo unspecified),inactive: -17.4%,
Cc1cc(C)c2oc(C(=O)Nc3nc4ccc(Cl)cc4s3)cc(=O)c2c1,inactive: -2.11%,
O=C(COc1ccccc1F)Nc1ccc2nc(SCc3ccccc3)sc2c1,inactive: -7.8%,
CCC(=O)N1CCc2cc(S(=O)(=O)NCCC(=O)Nc3cccc(SC)c3)ccc21,inactive: -17.5%,
COc1ccc2oc(=O)c(-c3nc4ccc(C)cc4[nH]3)cc2c1,inactive: 21.9%,
Cc1ccc(-n2ncc(C(=O)N3CCN(c4cccc(C)c4C)CC3)c2C2CCNCC2)c(C)c1,inactive: -5.01%,
COc1ccc(Br)cc1CC1C(=O)Nc2ccccc21 (stereo unspecified),,active: 12.6 µM

SMILES,"activity change, negative = inhibition",Potency
CN(C(=O)NCc1noc2ccccc12)c1cccc(Cl)c1,inactive: -16.2%,
COc1ccccc1NC(=O)C1=C(C)Nc2nc(SCc3ccccc3Cl)nn2C1c1cccnc1 (stereo unspecified),inactive: -2.95%,
Cc1ccc(NC(=O)CN2CCN(C3CCCCC3)C(=O)C2=O)cc1C,inactive: -5.19%,
Cc1ccc2c(c1)sc1nc(=O)n(-c3cccc(Cl)c3)c(=O)n12,inactive: 34.9%,
CCOC(=O)C1CCN(C(=O)Cn2nc(CC)n3c(cc4occc43)c2=O)CC1,inactive: -9.98%,
Cc1cc(Cl)ccc1NS(=O)(=O)c1cc2[nH]c(=O)c(=O)[nH]c2cc1C,inactive: -5.01%,
Cc1ccc(-n2c(=O)[nH]c3sc4c(c3c2=O)CCNC4)cc1C,inactive: -16.2%,
CCCCc1nn2c(C)c(-c3ccc(OCC)cc3)nc2s1,inactive: -14.7%,
COc1ccc(CN2C(=O)c3ccccc3C2C(=O)NC2CCCCCC2)c(OC)c1 (stereo unspecified),inactive: 0%,
Cc1ccc(NC(=O)C2CCN(S(=O)(=O)c3c(C)noc3C)CC2)cc1C,inactive: -14.4%,
N#Cc1ccc(NC(=O)COCc2cc(-c3ccc(F)cc3)on2)cc1,inactive: 4.11%,
COC(=O)c1cc2oc(C)cc2n1Cc1ccc(Cl)cc1,inactive: -13.1%,
COC(=O)c1c(-c2cccs2)csc1NC(=O)COc1ccc(C(C)C)cc1,inactive: -13.8%,
CCOC(=O)C1CCN(C(=O)c2nn(-c3ccc(C)cc3)c(=O)n(C)c2=O)CC1,inactive: -7.3%,
CCN(CC)C(=O)C1CCN(C(=O)c2cnn(-c3ccccc3)c2-n2cccc2)CC1,inactive: -18.5%,
CCOC(=O)CSc1nc2ccccc2n2c(C)nnc12,inactive: 12%,
O=C(CSc1nccn1C1CCCC1)Nc1ccccc1,inactive: 36.4%,
Cc1ccc(Cl)cc1N1CCN(C(=O)c2cn(C)c3ccc(S(=O)(=O)N4CCCC4)cc3c2=O)CC1,inactive: -29.6%,
CCOc1ccc(-n2ccnc2SCC(=O)Nc2ccc(OC)cc2OC)cc1,inactive: -33.9%,
O=C(Cn1c(=O)n(-c2ccccc2)c(=O)c2c3c(sc21)CCCC3)Nc1ccc(F)cc1,inactive: -5.01%,
COc1ccccc1N1CCN(C(=O)c2cc3c(=O)n(Cc4cccnc4)ccc3nc2C)CC1,inactive: -3.79%,
Cc1ccccc1OCC(=O)Nc1nnc(S(=O)(=O)N(C)c2ccccc2)s1,inactive: 0.553%,
CCN1CCN(c2ncc3c(n2)CCN(Cc2ccc(C)s2)C3)CC1,inactive: -15.3%,
Oc1cccc2[nH]ccc12,inactive: 15.6%,

SMILES,"activity change, negative = inhibition",Potency
Cc1cccc(CCNC(=O)c2nc(-c3ccc(Cl)cc3)n3c2CCCCC3)c1,inactive: -21.2%,
CCn1c2c(c(=O)n3ncc(C(=O)Nc4ccc(F)c(Cl)c4)c13)CN(Cc1ccc(OC)cc1)CC2,inactive: -12.7%,
CN(C)[C@@H]1C(=O)C(C(=O)NCN2CCCC2)=C(O)[C@@]2(O)C(=O)C3=C(O)c4c(O)cccc4[C@@](C)(O)C3C[C@@H]12 (stereo partly specified),inactive: 15.3%,
CC(C)CC(=O)N(Cc1ccccc1)S(=O)(=O)c1ccc2c(c1)oc(=O)n2C,inactive: -25.6%,
CCOc1ccc(C(=O)OCc2cc(=O)n3nc(C(C)C)sc3n2)cc1,inactive: -6.23%,
CO/N=C(/C(=O)N[C@@H]1C(=O)N2C(C(=O)[O-])=C(C[n+]3ccn4ncccc43)CS[C@H]12)c1nsc(N)n1,inactive: 1.14%,
Cc1ccc(S(=O)(=O)c2cn(CC(=O)Nc3ccccc3)c3cc4c(cc3c2=O)OCO4)cc1,inactive: -18.4%,
Fc1ccc(C(c2ccc(F)cc2)N2CCNCC2)cc1,inactive: 3.5%,
CCOc1ccccc1NC(=O)NC(CC)c1c(-n2cccc2)sc2c1CCN(C)C2 (stereo unspecified),inactive: -12.4%,
CCc1ccc(Nc2nc3ccccc3c3nnc(C)n23)cc1,inactive: -11%,
CCc1ccccc1NC(=O)CSc1nccn1C,inactive: -27%,
CCOC(=O)c1cc(OC(=O)c2cc(Cl)ccc2OC)n(-c2ccccc2)n1,inactive: -5%,
CCc1ccc(S(=O)(=O)c2nnn3c2nc(NCCC(C)C)c2cc(Cl)ccc23)cc1,inactive: -9.32%,
CC(=O)c1ccc(OC(=O)c2c(-c3ccccc3Cl)noc2C)cc1,inactive: 2.02%,
COc1ccc2c(c1)c(CC(=O)Nc1cc(C)c(OC)c(C)c1)c(C)n2C(=O)c1ccc(Cl)cc1,inactive: -23.4%,
O=C(COc1ccc(Cl)cc1Cl)Nc1ccc(C(=O)OC2CCCCC2)cc1,inactive: -7.94%,
Cn1nc(C(=O)Nc2cccc(C(F)(F)F)c2)c2c1-c1ccccc1S(=O)(=O)C2,inactive: 9.12%,
CCCN(CCC)S(=O)(=O)c1ccc(C(=O)N2CCn3c4c(c5cc(C)ccc53)CCCC42)cc1 (stereo unspecified),inactive: -40.7%,
COc1ccccc1Nc1ncnc2c1nc1n2CCCCC1,inactive: -0.505%,
CCOc1ccc(NS(=O)(=O)c2ccc3[nH]cc(C(=O)NCCc4ccccc4)c(=O)c3c2)cc1,inactive: 17%,
Cn1c(SCC(=O)Nc2ccccc2F)nc2c([nH]c3ccccc32)c1=O,inactive: -9.92%,
Cc1ccc(Nc2c(-c3cccc(Cl)c3)nc3cccc(C)n23)cc1,inactive: -24.7%,
CCC(=O)N1c2ccccc2CC1C(=O)NCCN1CCN(c2ccccc2F)CC1 (stereo unspecified),inactive: -17.9%,
Cc1ccc(NC(=O)CSc2nc(=O)n(CCN3CCOCC3)c3c2CCC3)cc1Cl,inactive: -21.6%,

SMILES,"activity change, negative = inhibition",Potency
Cn1c(=O)nc2n(-c3ccc(Br)cc3)c3cccc(Cl)c3cc-2c1=O,inactive: -16.2%,
CC(C)(C)OC(=O)N1CCC(c2c(C(=O)NCc3ccccn3)cnn2-c2ccccc2Cl)CC1,inactive: -4.87%,
Cc1ccc(C)c(N2CCN(S(=O)(=O)c3ccc(C4CCCCC4)cc3)CC2)c1,inactive: -1.75%,
CCOc1ccccc1NC(=O)CSc1nc(-c2cccs2)cc(C(F)(F)F)n1,inactive: -6.44%,
COc1ccc(Cl)cc1NC(=O)c1c(NCc2cccs2)sc2c1CCC(C)C2 (stereo unspecified),inactive: -21.5%,
COc1cccc(CNC(=O)C2CCN(c3ncnc4c3nc3n4CCCCC3)CC2)c1,inactive: -9.5%,
O=C(Nc1cc(-c2nc3ccccc3o2)ccc1Cl)c1cc([N+](=O)[O-])ccc1N1CCOCC1,inactive: 12.1%,
O=C1CCC[C@@H]2[C@H]3CCC[N+]4([O-])CCC[C@@H](CN12)[C@@H]34 (stereo partly specified),inactive: 5.31%,
Cn1cc(-c2cc3n(n2)CCC(=O)N3CC(=O)NCc2ccccc2)c2ccccc21,inactive: -16.2%,
CN(C)C1(CNC(=O)COc2cccc(Cl)c2)CCCCC1,inactive: -15.5%,
Cc1cccc(Cn2c(SCc3ccc(C(=O)NCc4cccs4)cc3)nc3ccncc32)c1,inactive: -32.4%,
Cc1cccc(C(=O)NCc2cn3cccc(C)c3n2)c1,inactive: -0.756%,
O=c1cc(N2CCN(c3ccc(F)cc3)CC2)[nH]c(=O)n1-c1cccc(Br)c1,inactive: -28.3%,
Cc1ccc(-n2c(=O)c3cccnc3n2CC(=O)Nc2ccccc2C(F)(F)F)cc1C,inactive: -23.4%,
COc1cccc(CNC(=O)C2CCCN(S(=O)(=O)c3cn(C)cn3)C2)c1 (stereo unspecified),inactive: -10.8%,
Cc1ccc(C)c(NC(=O)C(NS(=O)(=O)c2ccc3c(c2)CCC(=O)N3)c2ccccc2)c1 (stereo unspecified),inactive: -16.6%,
CC[C@H](C)NC(=O)CCCc1nnc2n(CCC(C)C)c(=O)c3sccc3n12,inactive: -13.3%,
COc1ccccc1OC(C)C(=O)N1CCN(CCc2ccccn2)CC1 (stereo unspecified),inactive: -6.5%,
COc1ccc(-c2cn3c(n2)sc2cc(C(=O)NC4CCCCC4)ccc23)cc1,inactive: -24.1%,
CCOC(=O)C1CCCN(C(=O)Cn2nc(C)n3c(cc4c(OC)cccc43)c2=O)C1 (stereo unspecified),inactive: -8.07%,
CCC(C)n1c(=N)c(C(=O)NC2CCCCC2)cc2c(=O)n3cc(C)ccc3nc21 (stereo unspecified),inactive: -9.02%,
O=c1c2ccccc2nc2sc(Nc3cccc(C(F)(F)F)c3)nn12,inactive: 20.9%,
CSc1cccc(NS(=O)(=O)c2ccc3[nH]cc(C(=O)N4CCCCCC4)c(=O)c3c2)c1,inactive: 4.38%,
Fc1ccc(-c2noc3ncnc(NCc4cccc(Cl)c4)c23)cc1,inactive: -17%,
